Experimental data from the supplement of paper PMC3334620.
Over roughly 33,000 sequences, “E-score (-0.5 to 0.5)” has its median near -0.017; the highest 2% begin near 0.3. The list shows a part of the results.

molecular target: T1, Sut1 (UniProt P53032); assay: PBM E-score (8-mer binding enrichment) (E-score (-0.5 to 0.5)); higher = stronger / more preferred TF binding; most listed sequences are background and not binding sites; details: protein concentration: 200 nM; construct: GST-full length
T1 sequence: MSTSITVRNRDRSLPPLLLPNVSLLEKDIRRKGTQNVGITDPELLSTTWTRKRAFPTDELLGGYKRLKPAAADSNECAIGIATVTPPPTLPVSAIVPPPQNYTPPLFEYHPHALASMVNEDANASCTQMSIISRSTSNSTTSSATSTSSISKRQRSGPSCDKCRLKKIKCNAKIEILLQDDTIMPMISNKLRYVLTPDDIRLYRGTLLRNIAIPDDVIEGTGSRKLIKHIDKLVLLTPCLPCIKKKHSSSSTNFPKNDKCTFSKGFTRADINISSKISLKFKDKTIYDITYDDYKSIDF
Method in brief: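 PURExpress in vitro transcription/translation supplied GST-tagged yeast transcription factors, either full-length or DNA-binding domain. Applied at about 100-200 nM to universal all-10-mer Agilent arrays double-stranded by primer extension, the bound protein was detected with fluorescent anti-GST. E-scores, modified Wilcoxon-Mann-Whitney statistics, were given by the Universal PBM Analysis Suite to ungapped eight-base words pooled with their reverse complements after masliner normalisation.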

Sequence | PBM E-score
ATGGAAAA | 0.0999
ACGGGTCA | -0.337
CCTGATCG | -0.264
AAATTGAT | 0.196
ATTTGTGA | 0.043
GAGCTAAA | 0.106
TCCTGCCA | -0.28
ATCAATGC | 0.0217
AACATCCA | -0.0116
GGACAAAC | -0.0488
GAAAAGGA | 0.217
ATAGCCAG | -0.129
CCACCAAG | -0.22
AAACCCAG | -0.0905
ACATCAAC | 0.106
AATAACAC | 0.264
GACCAAGC | 0.0643
AGGCTGAG | -0.0842
CCAAAGTA | 0.0294
GAAGTTAA | 0.0179
ACATCAAT | 0.201
CAAACCAC | -0.129
CGCTGTGC | -0.114
CGACAAGC | -0.302
CAACATCC | -0.0349

Sequence | PBM E-score
CCGGGAGC | -0.0765
AGGGACCT | -0.21
ATGATCTG | 0.0866
AAATACAT | 0.194
ACAACTGC | -0.0476
GATAGCAA | 0.155
ATGCATTA | 0.208
AGGACAAT | 0.08
ACTGAGCC | -0.107
ACACAGAG | -0.0985
CCGTTATA | 0.0818
GAGTCAGA | 0.0675
AGTGTTAA | 0.112
AAAAACGG | 0.188
CCAATTAA | 0.202
ACTAACAG | -0.00417
CTGTAGAA | 0.0623
AGAGGAAA | 0.066
CCGGCTGC | 0.0356
CAATAAAA | 0.136
AATCTCTG | -0.129
CTGATGGA | -0.218
AGAGAGAA | -0.0107
AAAAGGCC | -0.0796
ACGCCTTG | -0.0406

Sequence | PBM E-score
AGTCTGAA | -0.0182
AAAGCTTT | 0.086
AGTACGGA | 0.374
ACTCAGAC | -0.0915
ATAGTCTC | 0.108
AAAACAGT | 0.209
ACAGCCCG | -0.203
GCAGATTA | 0.023
CAGTGCCG | -0.102
CGGGGTAG | 0.198
AATTATTC | 0.317
AGAAATTC | 0.126
ACCACCAC | 0.108
AGCTAAGG | -0.046
AAATCGCA | 0.0779
CCTTGTGA | -0.0988
CGCTGCCC | -0.21
CGGTTTCA | 0.0548
CAAGGTGG | 0.0129
CACAACGA | 0.0234
GAGGCCTA | -0.179
CTGAGCGA | -0.162
AGGGCGCA | -0.238
ATGGAGGA | -0.156
CAGGGTCA | -0.206

Sequence | PBM E-score
CACGTATC | 0.0318
GGTAAAAC | -0.0242
ACAATCCG | 0.0559
CTAGCAAG | -0.169
CAAACCTG | -0.11
GGAGAACA | 0.175
CAGAGAGA | -0.2
AAATCCAA | 0.156
GAAGGAGA | -0.123
ATAACTGG | -0.0188
ACGGTTCA | -0.232
GAGTTACC | -0.0127
GAACCGTC | -0.0465
AGAGATCT | -0.113
AGGCACAA | -0.121
ACGGGCTC | -0.306
GCGCGACA | -0.0666
GCACCAAC | -0.055
CAGAGCTC | -0.157
CCCCACTA | -0.349
CAGCATAC | -0.165
ATCTATTG | 0.0481
TACGACTA | -0.0667
GCCACTTA | 0.00087
GAGGTGCC | -0.138

Sequence | PBM E-score
GGGAATGA | 0.0337
AGACGCGG | 0.152
TAGATGAA | 0.112
CCCGCAAC | 0.092
GAGGCTAA | -0.00314
CGGCAGGA | -0.0907
AAAAACTG | 0.12
CGGTGGCC | 0.023
ACGCTAGT | -0.122
CAACCTCA | -0.181
GCCCTTGA | -0.229
CTACTGCC | -0.11
CGGAAGAA | 0.245
TACGAACA | 0.131
AAGCTGCA | -0.0968
AAGGTGAG | -0.216
AAGCCTCT | -0.29
CAAATTGA | -0.0107
CCGAATTA | 0.166
CACGGTTC | -0.23
AAGCACCC | -0.244
GCGCAGTA | -0.0391
AGAACAGG | -0.0934
CATAATCC | -0.127
TTGTTAAA | 0.145

Sequence | PBM E-score
ATATCTTC | 0.196
GAATGGGA | -0.0732
CTTGCCCC | -0.0609
GATCGTCC | -0.0713
ACTACGTC | -0.236
ACATCTGC | -0.193
CTGAGGAC | -0.0483
GGTGTCGA | -0.131
ACCTACCT | 0.025
ATGACGCC | -0.124
AAATATGA | 0.114
ATCGAACG | -0.0472
ATAATCAT | 0.237
CATGACCA | -0.237
ACCAGATC | -0.121
GGCTAGCA | -0.105
CCCGTGCG | -0.168
AGGGTAAA | 0.0374
CCAATCAA | 0.0316
AACATATG | 0.0611
AACTTAAT | 0.22
ACATAGTA | 0.0863
CCTTGAGA | 0.00321
CTATGCGA | -0.0701
CCAGTATC | -0.0266

Sequence | PBM E-score
AAGGAAAA | 0.239
AGGGCAAT | -0.15
AAGGCGGC | -0.135
ACAACGCG | 0.0166
GAGCTCGC | -0.0965
CGATCCTA | -0.052
AGGGAACC | -0.129
GAGTGTAA | -0.195
ATAATCCA | 0.0339
ATAGGGAG | -0.219
CCCACTTC | -0.0765
ATATCCAG | -0.168
GGGTACGA | -0.197
ATCTACAT | 0.123
TAAACATA | 0.125
AAACATAA | 0.0774
CCGGTCGA | -0.144
TACAAGTA | 0.0389
GCACCGGC | -0.0791
AGGGCGTA | -0.194
ATCCTACG | -0.138
CGTGCCGA | -0.121
CGGTAGGA | -0.105
GCCGCCGA | -0.0122
ATTCACGA | 0.145

Sequence | PBM E-score
AGGGATAA | 0.0543
GACCCTGC | -0.286
ATTTGTTG | 0.145
AGGCAAAG | -0.0491
AATGGAGA | 0.0365
ACTAGTCT | -0.049
ATTGCAAA | 0.236
CGTAAGTC | 0.107
ACCATTCG | -0.0868
CGGTTAGC | -0.0715
GGGACAAC | -0.231
CGTTAATA | 0.198
ATTAAGTA | 0.175
GGGAAAAC | 0.0484
GACTGTCC | -0.00572
CAAGCTTA | -0.108
GCCGGCCC | -0.119
CAATCAGG | -0.167
TATGACAA | 0.0874
GCCTTGCC | -0.155
CAGCTACA | -0.0929
GACTAAGC | 0.0931
CTTTAAAA | 0.175
AATCTGAG | -0.00107
ACGGTCTG | -0.1

Sequence | PBM E-score
CAATACGA | 0.0856
GAGTATAC | -0.00309
GTGCCCAA | -0.185
ACGGGTTG | -0.342
GGTAAGCA | -0.0897
ATGGGCGC | -0.254
TCTGTTAA | 0.0688
AGCACGCA | -0.21
ACATGAGA | 0.0979
ATTAGAAC | 0.26
AAACCCCT | -0.185
ACTACGCT | 0.052
TCAGGGCA | -0.382
TGCATCCA | 0.0253
CCGAAGTC | 0.269
CTACGCCA | -0.209
GCACACCC | -0.283
GATTGTAA | 0.108
CAACTTAG | 0.097
